The data scatter; read single values as rough.
B1: Ydj1; a variant is named by its letters at X, in order (parent)
chain: MVKETKFYDILGVPVTATDVEIKKAYRKCALKYHPDKNPSEEAAEKFKEASAAYEILSDPEKRDIYDQFGEDGLSGAGGAGGFPGGGFGFGDDIFSQFFGAGGAQRPRGPQRGKDIKHEISASLEELYKGRTAKLALNKQILCKECEGRGGKKGAVKKCTSCNGQGIKFVTRQMGPMIQRFQTECDVCHGTGDIIDPKDRCKSCNGKKVENERKILEVHVEPGMKDGQRIVFKGEADQAPDVIPGDVVFIVSERPHKSFKRDGDDLVYEAEIDLLTAIAGGEFALEHVSGDWLKVGIVPGEVIAPGMRKVIEGKGMPIPKYGGYGNLIIKFTIKFPENHFTSEENLKKLEEILPPRIVPAIPKKATVDECVLADFDPAKYNRTRASRGGANYDSDEEEQGGEGVQCXXX

Variants of: B1
Assay: enrichment factor, frequency at 37 °C / frequency at 25 °C (thermotolerance selection) (ratio); higher = more growth at 37 °C, higher likelihood of farnesylation
Settings: with Saccharomyces cerevisiae ydj1Δ (yWS304); selective temperature 37 °C; reference temperature 25 °C

Variant | enrichment factor
PQF | 1.34
PQG | 1.73
PQD | 1.2
PQE | 1.44
PQI | 1.3
PQH | 1.55
PQC | 1.71
PQA | 1.68
IQE | 1.32
IQD | 1.28
IQA | 1.49
IQF | 2.34
IQC | 1.93
IQG | 1.39
IQI | 2.19
IQH | 1.36
VQG | 1.61
VQA | 1.84
VQF | 3.78
VQE | 1.3
VQC | 3.31
VQD | 1.43
VQH | 2.3
AQG | 1.26

Variant | enrichment factor
AQD | 1.75
AQA | 1.38
AQH | 1.41
AQC | 1.77
AQF | 1.43
AQE | 1.59
AQI | 1.62
NQG | 1.57
NQI | 1.82
NQH | 1.38
NQD | 0.637
NQA | 1.41
NQE | 0.364
NQF | 1.65
NQC | 1.69
YPY | 1.73
MQH | 1.78
MQE | 0.924
MQG | 2.32
MQA | 1.6
MQC | 1.53
MQI | 1.85
MQF | 1.94
MQD | 0.65

Variant | enrichment factor
SPY | 2.02
SQA | 1.49
SQD | 0.893
SQH | 1.99
SQC | 1.67
SQF | 1.9
SQE | 0.936
SQG | 1.61
WQF | 1.64
WQH | 1.48
WQE | 1.35
WQD | 0.746
WQC | 0.698
WQG | 1.68
WQA | 2.12
PPY | 1.37
YQA | 2.98
YQC | 3.98
YQD | 0.494
YQH | 1.51
YQG | 1.67
YQE | 0.261
YQF | 2.48
CQG | 1.46

Variant | enrichment factor
CQD | 1.12
CQF | 0.558
CQH | 1.18
CQC | 0.753
CQA | 2.99
CQE | 1.61
TQD | 1.42
TQF | 2.28
TQA | 1.89
TQE | 1.26
TQC | 1.86
TQH | 1.76
TQG | 1.57
LQI | 1.9
LQH | 1.46
LQE | 1.47
LQF | 1.79
LQD | 1.31
LQC | 0.886
LQA | 1.46
LQG | 1.22
WPY | 1
KPY | 1.68
MPY | 1.83

Variant | enrichment factor
IPY | 2.45
EQA | 1.33
EQF | 1.43
EQI | 1.46
EQG | 0.781
EQE | 0.239
EQC | 1.81
EQH | 0.989
EQD | 0.225
TPY | 1.97
HPY | 1.81
CPY | 1.49
QPY | 2.29
RPY | 1.92
RQC | 1.63
RQA | 1.55
RQF | 2.78
RQD | 1.69
RQE | 1.3
RQH | 1.54
RQG | 1.45
GQE | 0.192
GQG | 1.11
GQA | 1.83

Variant | enrichment factor
GQC | 1.56
GQH | 0.457
GQF | 2.02
GQD | 0.17
GQI | 0.868
LPY | 2.04
KQH | 1.55
KQC | 1.86
KQG | 1.67
KQD | 1.54
KQE | 1.22
KQF | 1.67
KQA | 1.43
KQI | 1.27
QQG | 1.61
QQE | 0.697
QQH | 2
QQC | 2.65
QQA | 1.91
QQD | 0.798
QQF | 2.86
FQA | 1.5
FQF | 1.43
FQC | 1.51

Variant | enrichment factor
FQE | 0.306
FQI | 1.61
FQD | 0.434
FQH | 1.61
FQG | 1.5
VPY | 2.55
HQD | 0.909
HQE | 0.86
HQC | 2.93
HQF | 2.22
HQA | 1.74
HQG | 1.5
HQH | 1.85
HQI | 1.84
NPY | 1.93
DQG | 0.163
DQA | 0.574
DQD | 0.0836
DQC | 1.15
DQI | 0.2
DQH | 0.259
DQE | 0.139
DQF | 1.35
